{"source": "the supplement of paper PMC8728848", "binders": {"B1": {"name": "ABA (Agaricus bisporus), Q00022 (protein)", "chain": "MTYTISIRVYQTTPKGFFRPVERTNWKYANGGTWDEVRGEYVLTMGGSGTSGSLRFVSSDTDESFVATFGVHNYKRWCDIVTNLTNEQTALVINQEYYGVPIRDQARENQLTSYNVANAKGRRFAIEYTVTEGDNLKANLIIG"}}, "test_in_all_cases": "glycan array binding signal (z-score within array); higher = stronger binding", "details_in_all_cases": "glycan notation: IUPAC condensed, linker removed", "key": {"[1]": {"target": "Neu5Ac9Ac(a2-3)Gal(b1-4)GlcNAc", "how_it_was_run": "(§1)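 The binding signal is a Z-score computed within each array. Data were drawn from 3228 arrays in the Consortium for Functional Glycomics database, restricted to those with a known protein sequence. Scores were averaged over arrays of the same protein sequence at different concentrations or buffers, and over linkers, and negative values can be taken as non-binding.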"}, "[2]": {"target": "Neu5Ac9Ac(a2-6)Gal(b1-4)GlcNAc", "how_it_was_run": "as §1"}, "[3]": {"target": "Neu5Gc(a2-3)Gal(b1-3)GlcNAc", "how_it_was_run": "as §1"}, "[4]": {"target": "Neu5Gc(a2-3)Gal(b1-3)[Fuc(a1-4)]GlcNAc", "how_it_was_run": "as §1"}, "[5]": {"target": "Neu5Gc(a2-3)Gal(b1-4)Glc", "how_it_was_run": "as §1"}, "[6]": {"target": "Neu5Gc(a2-3)Gal(b1-4)GlcNAc", "how_it_was_run": "as §1"}, "[7]": {"target": "Neu5Gc(a2-3)Gal(b1-4)GlcNAc(b1-3)Gal(b1-4)GlcNAc(b1-2)Man(a1-3)[Neu5Gc(a2-3)Gal(b1-4)GlcNAc(b1-3)Gal(b1-4)GlcNAc(b1-2)Man(a1-6)]Man(b1-4)GlcNAc(b1-4)GlcNAc", "how_it_was_run": "as §1"}, "[8]": {"target": "Neu5Gc(a2-3)Gal(b1-4)[Fuc(a1-3)]GlcNAc", "how_it_was_run": "as §1"}, "[9]": {"target": "Neu5Gc(a2-6)Gal(b1-4)GlcNAc", "how_it_was_run": "as §1"}, "[10]": {"target": "Neu5Gc(a2-6)GalNAc", "how_it_was_run": "as §1"}, "[11]": {"target": "Neu5Gc(a2-8)Neu5Ac(a2-3)Gal(b1-4)GlcNAc", "how_it_was_run": "as §1"}, "[12]": {"target": "Neu5Gc(a2-8)Neu5Gc(a2-3)Gal(b1-4)GlcNAc", "how_it_was_run": "as §1"}, "[13]": {"target": "Neu5Gc(a2-8)Neu5Gc(a2-3)Gal(b1-4)GlcNAc(b1-3)Gal(b1-4)GlcNAc", "how_it_was_run": "as §1"}, "[14]": {"target": "Neu5Gc(a2-8)Neu5Gc(a2-6)Gal(b1-4)GlcNAc", "how_it_was_run": "as §1"}, "[15]": {"target": "Neu5Gc(b2-6)Gal(b1-4)GlcNAc", "how_it_was_run": "as §1"}}, "note": "The list shows a part of the results.", "data": [{"binder": "B1", "values": [{"measurement": "glycan array binding signal (z-score)", "setting": "[1]", "result": 0.53}, {"measurement": "glycan array binding signal (z-score)", "setting": "[2]", "result": -0.257}, {"measurement": "glycan array binding signal (z-score)", "setting": "[3]", "result": -0.212}, {"measurement": "glycan array binding signal (z-score)", "setting": "[4]", "result": -0.238}, {"measurement": "glycan array binding signal (z-score)", "setting": "[5]", "result": -0.232}, {"measurement": "glycan array binding signal (z-score)", "setting": "[6]", "result": -0.206}, {"measurement": "glycan array binding signal (z-score)", "setting": "[7]", "result": -0.152}, {"measurement": "glycan array binding signal (z-score)", "setting": "[8]", "result": -0.298}, {"measurement": "glycan array binding signal (z-score)", "setting": "[9]", "result": -0.229}, {"measurement": "glycan array binding signal (z-score)", "setting": "[10]", "result": -0.224}, {"measurement": "glycan array binding signal (z-score)", "setting": "[11]", "result": -0.228}, {"measurement": "glycan array binding signal (z-score)", "setting": "[12]", "result": -0.284}, {"measurement": "glycan array binding signal (z-score)", "setting": "[13]", "result": -0.226}, {"measurement": "glycan array binding signal (z-score)", "setting": "[14]", "result": -0.213}, {"measurement": "glycan array binding signal (z-score)", "setting": "[15]", "result": -0.256}]}]}
